The source of these data is article PMC8639986, “Regulation of the EphA2 receptor intracellular region by phosphomimetic negative charges in the kinase-SAM linker” (Nature Communications, 2021).

Data set [1] concerns the molecule itself. Description: fluorescence intensity fluctuation (FIF); molecular brightness distributions of EphA2-EYFP in the plasma membrane of HEK293T cells, no ligand; compared with published monomer (LAT) and dimer (E-cadherin) controls.
Data set [2] deals with the molecule itself. Description: fluorescence intensity fluctuation (FIF); molecular brightness distributions of EphA2-EYFP in the plasma membrane of HEK293T cells treated with 5.5 nM (saturating) ephrinA1-Fc; compared with published monomer (LAT) and dimer (E-cadherin) controls.

B1: full-length EphA2 5A (S892A/S897A/T898A/S899A/S901A) labeled at the C-terminus with mTurquoise or EYFP (receptor, human)
chain: [about 500 residues not given here]IGGVAVGVVLLLVLAGVGFFIHRRRKNQRARQSPEDVYFSKSEQLKPLKTYVDPHTYEDPNQAVLKFTTEIHPSCVTRQKVIGAGEFGEVYKGMLKTSSGKKEVPVAIKTLKAGYTEKQRVDFLGEAGIMGQFSHHNIIRLEGVISKYKPMMIITEYMENGALDKFLREKDGEFSVLQLVGMLRGIAAGMKYLANMNYVHRDLAARNILVNSNLVCKVSDFGLSRVLEDDPEATYTTSGGKIPIRWTAPEAISYRKFTSASDVWSFGIVMWEVMTYGERPYWELSNHEVMKAINDGFRLPTPMDCPSAIYQLMMQCWQQERARRPKFADIVSILDKLIRAPDSLKTLADFDPRVAIRLPAAAGAEGVPFRTVSEWLESIKMQQYTEHFMAAGYTAIEKVVQMTNDDIKRIGVRLPGHQKRIAYSLLGLKDQVNTVGIPI
notes: EphA2 (ephrin type-A receptor 2), full length, five kinase-SAM linker phosphosites replaced by alanine; Both mTurquoise and EYFP forms were co-transfected for FRET; Only the EYFP form was used for FIF; also called EphA2 5A-EYFP; source: HEK293T, transiently transfected (pcDNA3), in the plasma membrane of live cells; not shown: mTurquoise or EYFP attached via a flexible linker (GGS)5, C-terminal, …
Take B1: the “stoichiometry N” value in data set [1] was 2.

B2: full-length EphA2 5E (S892E/S897E/T898E/S899E/S901E) labeled at the C-terminus with mTurquoise or EYFP (receptor, human)
chain: [about 500 residues not given here]IGGVAVGVVLLLVLAGVGFFIHRRRKNQRARQSPEDVYFSKSEQLKPLKTYVDPHTYEDPNQAVLKFTTEIHPSCVTRQKVIGAGEFGEVYKGMLKTSSGKKEVPVAIKTLKAGYTEKQRVDFLGEAGIMGQFSHHNIIRLEGVISKYKPMMIITEYMENGALDKFLREKDGEFSVLQLVGMLRGIAAGMKYLANMNYVHRDLAARNILVNSNLVCKVSDFGLSRVLEDDPEATYTTSGGKIPIRWTAPEAISYRKFTSASDVWSFGIVMWEVMTYGERPYWELSNHEVMKAINDGFRLPTPMDCPSAIYQLMMQCWQQERARRPKFADIVSILDKLIRAPDSLKTLADFDPRVEIRLPEEEGEEGVPFRTVSEWLESIKMQQYTEHFMAAGYTAIEKVVQMTNDDIKRIGVRLPGHQKRIAYSLLGLKDQVNTVGIPI
notes: EphA2 (ephrin type-A receptor 2), full length, five kinase-SAM linker phosphosites replaced by glutamic acid; Both mTurquoise and EYFP forms were co-transfected for FRET; Only the EYFP form was used for FIF; also called EphA2 5E-EYFP; source: HEK293T, transiently transfected (pcDNA3), in the plasma membrane of live cells; not shown: mTurquoise or EYFP attached via a flexible linker (GGS)5, …
In the case of B2, the results for the “stoichiometry N” value in data set [2] and in data set [1] were above 2 and 2, respectively.

Broadly, the stoichiometry N is a count of units in the complex or per binding partner.
